From paper PMC4673895 (DNA repair, 2015)

Molecular target: his6-TDP1 (human tyrosyl-DNA phosphodiesterase, wild type) (human, UniProt Q9NUW8)
Experiment: pull-down

B1: MBP-XLF-K293A (natural protein)
chain: not shown
  binding result: binds
